Assay results reported in the RNAGym collection of RNA variant scans (doi:10.7554/elife.90254).
The source gives no read counts; variants with many changes may rest on few reads.

B1: LINE1-mini (parent)
chain: GGCAGAGCUCAACACAGCGUGGCAAAGUGGCUGUGGCUAGACUGCC

Variants of: B1
Assay: self-cleavage, relative activity (ratio to wild type); higher = more cleavage; in vitro, sequencing; the parent is a self-cleaving ribozyme

Question: Which self-cleavage does the source give for A16U C18A G21C C23A U32A G40A G44U here?
Answer: 0.01

Question: For G17U G19U U43G C45G, which self-cleavage is on record?
Answer: 0.05

Question: With A16U A25G G35C U43A as the variant, how does the self-cleavage read?
Answer: 0.01

Question: For A16U G30A C37U, which self-cleavage is on record?
Answer: 0.08

Question: For A16U G17A G22A G29A, which self-cleavage is on record?
Answer: 0.01

Question: Which self-cleavage does the source give for G17A C23A U28C G29A here?
Answer: 0.42

Question: Which self-cleavage does the source give for G17U G19A C23U G35C C42A here?
Answer: 0.03

Question: For A16U C37A C46U, which self-cleavage is on record?
Answer: 0.02

Question: For A16G C31U U34A, which self-cleavage is on record?
Answer: 0.01

Question: For A16G U43A C46U, which self-cleavage is on record?
Answer: 0.15

Question: With A16G G19C C42G as the variant, how does the self-cleavage read?
Answer: 0.02

Question: Which self-cleavage does the source give for A16U G19U G27U here?
Answer: 0.64

Question: Which self-cleavage does the source give for G17U C18G G44A here?
Answer: 0

Question: With A16C G21U A25G as the variant, how does the self-cleavage read?
Answer: 0.01

Question: For A16U C23A A24G, which self-cleavage is on record?
Answer: 0.1

Question: For G17C G36U C46U, which self-cleavage is on record?
Answer: 0.03

Question: Which self-cleavage does the source give for A16U G40A C42G G44U C45A here?
Answer: 0.02

Question: Which self-cleavage does the source give for G17A G27U C31G G44C here?
Answer: 0.03

Question: With G17A A24G A41U C46A as the variant, how does the self-cleavage read?
Answer: 0.09

Question: For G17U G21U G22U, which self-cleavage is on record?
Answer: 0.5

Question: For G17A G33U C37A, which self-cleavage is on record?
Answer: 0.28

Question: For G17U G21A A26G G33C, which self-cleavage is on record?
Answer: 0.06

Question: Which self-cleavage does the source give for A16G C31A U34A A39U here?
Answer: 0.01

Question: With G17U G33A C42U as the variant, how does the self-cleavage read?
Answer: 0.02

Question: Which self-cleavage does the source give for G17U C23A U34G C37U here?
Answer: 0

Question: Which self-cleavage does the source give for G17A G21C C31A G33A here?
Answer: 0.05

Question: For A16U U20G U38C C42G, which self-cleavage is on record?
Answer: 0.01

Question: With G17A U20C C23U U32A as the variant, how does the self-cleavage read?
Answer: 0.03

Question: With G17U G27A G30U as the variant, how does the self-cleavage read?
Answer: 1.49

Question: Which self-cleavage does the source give for G17U G33A A39C C42U here?
Answer: 0.13

Question: Which self-cleavage does the source give for G17A G29U C31U G44C here?
Answer: 0.04

Question: Which self-cleavage does the source give for A16G G17U A26C C31U here?
Answer: 0.01

Question: With G17U G33C U38C C45G as the variant, how does the self-cleavage read?
Answer: 0.05

Question: Which self-cleavage does the source give for A16G G27A G29U G30A here?
Answer: 0.1

Question: With G17A U32G G35U C46U as the variant, how does the self-cleavage read?
Answer: 0.2

Question: For A16U C23U C37G C46G, which self-cleavage is on record?
Answer: 0.13

Question: With G17U G27C G30U C31G C46A as the variant, how does the self-cleavage read?
Answer: 0.06

Question: For G17A C23U U34A, which self-cleavage is on record?
Answer: 0.01

Question: With A16U U34C C46G as the variant, how does the self-cleavage read?
Answer: 0.08

Question: With G17C G21U G33A as the variant, how does the self-cleavage read?
Answer: 0.02

Question: With G17C G30U G33A as the variant, how does the self-cleavage read?
Answer: 0.04

Question: With G17U C31G C46U as the variant, how does the self-cleavage read?
Answer: 0.41

Question: For A16G A24G C31G, which self-cleavage is on record?
Answer: 0.01

Question: Which self-cleavage does the source give for G17U C18G G29A G35U here?
Answer: 0.05

Question: Which self-cleavage does the source give for A16G A25U G44A here?
Answer: 0.02

Question: For A16U G17U C18U A41C, which self-cleavage is on record?
Answer: 0.03

Question: For G17U C23U U38G, which self-cleavage is on record?
Answer: 0.02

Question: With A16C G22C A41C as the variant, how does the self-cleavage read?
Answer: 0

Question: With G17C G22C A25U as the variant, how does the self-cleavage read?
Answer: 0.97

Question: With G17C C18G G21C G29U U34G as the variant, how does the self-cleavage read?
Answer: 0.02

Question: Which self-cleavage does the source give for A16G G17U U28A here?
Answer: 0.75

Question: Which self-cleavage does the source give for A16U G22C G36A here?
Answer: 0.06

Question: With A16U G19U G33C as the variant, how does the self-cleavage read?
Answer: 0.02

Question: Which self-cleavage does the source give for A16G C23U C31A G33U here?
Answer: 0.03

Question: Which self-cleavage does the source give for G17A C18U U32C G35U here?
Answer: 0.01

Question: With G17C U20C G30A C42U as the variant, how does the self-cleavage read?
Answer: 0.13

Question: Which self-cleavage does the source give for A16G A24C G30A G35A here?
Answer: 0.11

Question: With G17A U20A A39C as the variant, how does the self-cleavage read?
Answer: 0.14

Question: Which self-cleavage does the source give for G17U G40U C42U here?
Answer: 0.03

Question: For G17C C23G G35U, which self-cleavage is on record?
Answer: 0.02

Question: For A16G G17C U28G, which self-cleavage is on record?
Answer: 0.36

Question: For A16U G19U U28A G36C C45A, which self-cleavage is on record?
Answer: 0.02

Question: With A16U A26U G27A C31A as the variant, how does the self-cleavage read?
Answer: 0.03

Question: With G17U G29U C31U U34G C42A G44A as the variant, how does the self-cleavage read?
Answer: 0

Question: Which self-cleavage does the source give for G17U A24G C42U here?
Answer: 0.02

Question: Which self-cleavage does the source give for G17U G33A U38C C42A G44A here?
Answer: 0.01

Question: For G17A C23A U34A C45G, which self-cleavage is on record?
Answer: 0.01

Question: Which self-cleavage does the source give for G17U A25U G33C here?
Answer: 0.02

Question: For G17U C18G G27U U43C, which self-cleavage is on record?
Answer: 0.04

Question: Which self-cleavage does the source give for G17A C18A G29C G33U C42U here?
Answer: 0.06

Question: For G17C U20A G30A U34G, which self-cleavage is on record?
Answer: 0.01

Question: Which self-cleavage does the source give for G17C C37G G40U C42U here?
Answer: 0.02

Question: For A16G G19U G27U C31U G40U, which self-cleavage is on record?
Answer: 0.02

Question: Which self-cleavage does the source give for A16G A24U U28A G36A here?
Answer: 0.17

Question: Which self-cleavage does the source give for G17U A24C U43A here?
Answer: 0

Question: With A16U G21A G30U G35A C46U as the variant, how does the self-cleavage read?
Answer: 0.02

Question: Which self-cleavage does the source give for G17A G21C G27A A39C here?
Answer: 0.19

Question: For G17A G19C G22U A41U C42G, which self-cleavage is on record?
Answer: 0.02

Question: For G17U C18G G30A C31A G33U, which self-cleavage is on record?
Answer: 0.61

Question: For G17U G27U G30U C46U, which self-cleavage is on record?
Answer: 0.23

Question: With G17C C18U C23G A39G U43C as the variant, how does the self-cleavage read?
Answer: 0.01

Question: Which self-cleavage does the source give for G17U C18A G22U here?
Answer: 0.07

Question: For G17C A24C G35A G40U C45A, which self-cleavage is on record?
Answer: 0
